We go through 48 compounds from PubChem BioAssay AID1508623 (National Center for Advancing Translational Sciences (NCATS), 2021).

Out of some 48,000 compounds screened, about 450 (0.94%) were called active. Inconclusive results (about 19%) are left out. Calls come from the whole dose curve; as a rule, active = well fitted inhibition curve with a large enough effect; inconclusive = small, poorly fitted or top-dose-only effect; inactive = no such curve, though single readings can be large or run the other way. Some of the results follow.

A short description of this test: Primary qHTS for Identification of Small Molecule Inhibitors of Huntingtin Promoter Activity. Note: nearly all actives have a fitted effect of over 50% in size. The following applies: HEK293 HTT promoter firefly luciferase reporter (activity 0% = vehicle and -100% = no light), 24 h; series mostly up to 57.5 µM; activity change, negative = inhibition: at the top concentration. The method in brief: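 Firefly luciferase signal from promoter-reporter HEK293 cells was scaled between vehicle (0%) and zero RLU (-100%). Compounds were tested at final concentrations of up to 57.5 uM over 24 h at 37 degrees C. PTC124 at 50 uM final served as control inhibitor.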
As to `Cc1ccc(O)c(NC(=O)c2cc(-c3ccc(F)cc3)on2)c1`, the “activity change, negative = inhibition” value is inactive: 74.9%.

For `Cc1cc2c(cc3c(SCc4cccc(F)c4)nnc(C)n32)o1`, the “activity change, negative = inhibition” value was inactive: 12%.

`Cc1cccc(C(=O)N2CCC(N3CCN(Cc4ccc(F)cc4)C(=O)C3=O)CC2)c1`: the activity change, negative = inhibition is inactive: -0.108% [at 11.5 µM].

On to `COC(=O)c1ccc(Cl)cc1NC(=O)NC(C)c1c(-n2cccc2)sc(C)c1C` (stereo not drawn), for which the “activity change, negative = inhibition” value is inactive: -27.5%.

Turning to `O=c1c2c3c(sc2n(Cc2ccccc2F)c(=O)n1-c1ccc(Cl)cc1)CCCC3`, the “activity change, negative = inhibition” value was inactive: -4.81%.

Consider `Cc1c(C)c2c(cc(C)c3c(-c4ccc(Br)cc4)coc32)oc1=O`, for which the “activity change, negative = inhibition” value was inactive: -3.38%.

For the compound `CCOC(=O)c1cccc(NC(=O)CCn2c(=O)oc3ccccc32)c1`, the “activity change, negative = inhibition” value was inactive: -14.1%.

As to `CCC(Oc1ccccc1)C(=O)Nc1cccc(OCc2cc(=O)n3cccc(C)c3n2)c1` (stereo not drawn), the “activity change, negative = inhibition” value was inactive: -5.62%.

As for `Cc1ccc(CSc2nnc([C@@H](N)C(C)C)o2)cc1`, the “activity change, negative = inhibition” value is inactive: -11.2%.

`CC(=O)c1ccc(NC(=O)Cn2c(=O)cc(C)c3c(C)nn(-c4cccc(F)c4)c32)cc1`: the “activity change, negative = inhibition” value was inactive: -7.07%.

As for `CCOC(=O)c1c(C)[nH]c(C)c1S(=O)(=O)NCC(=O)Nc1cccc(SC)c1`, the “activity change, negative = inhibition” value is inactive: -16.7%.

In the case of `COc1cccc(NC(=O)CSc2nc(C)c(Cc3ccccc3)c(=O)[nH]2)c1`, the “activity change, negative = inhibition” value was inactive: -16.6%.

With `CCN(CC)c1ccc(C(=O)NCc2nc3cccnc3n2Cc2ccc(C)cc2)cc1`, the “activity change, negative = inhibition” value was inactive: -2.15%.

As to `Cc1ccc(C2N=C(N)Nc3nc4ccccc4n32)cc1` (stereo not drawn), the “activity change, negative = inhibition” value is inactive: -12.5%.

For the compound `Cc1cccc(-c2nc3c4c(-c5ccccc5)c(-c5ccccc5)oc4ncn3n2)c1`, the “activity change, negative = inhibition” value is inactive: 1.77%.

In the case of `Cc1cccc(NC(=O)Cn2cc(S(=O)(=O)N3CCCC3)c(S(=O)(=O)N3CCCC3)c2)c1C`, the activity change, negative = inhibition is inactive: 3.34% [at 11.5 µM].

In the case of `CSCCC(NS(=O)(=O)c1ccc2c(c1)oc(=O)n2C)C(=O)Nc1ccc(F)c(Cl)c1` (stereo not drawn), the “activity change, negative = inhibition” value was inactive: -17.2%.

In the case of `Cc1cccc(NC(=O)c2cnc3sc(N4CCCC4)nn3c2=O)c1C`, the “activity change, negative = inhibition” value is inactive: -0.532%.

With `COc1ccc(NC(=O)c2c(NCc3cccc(F)c3)sc3c2CCC3)c(OC)c1`, the “activity change, negative = inhibition” value is inactive: -20.3%.

As to `COc1cccc2sc(N(Cc3cccnc3)C(=O)c3ccco3)nc12`, the “activity change, negative = inhibition” value was inactive: -17.5%.

Regarding `Cc1nn(C)c(C)c1S(=O)(=O)N(CC(=O)NCCc1ccc(Cl)cc1)c1ccc(C(C)C)cc1`, the “activity change, negative = inhibition” value was inactive: -5.35%.

Take `COc1cc2c(cc1OC)C(=O)CC2`: the “activity change, negative = inhibition” value was inactive: 29.1%.

With `COc1ccc(C)cc1NC(=O)C(=O)NCCc1sc(-c2cccc(C)c2)nc1C`, the “activity change, negative = inhibition” value was inactive: 4.5%.

Turning to `Cc1cc(C)cc(NC(=O)Cc2csc(COc3cccc(C)c3)n2)c1`, the “activity change, negative = inhibition” value is inactive: -16.6%.

As to `CCCNC(=O)C1CCC(Cn2c(=O)c3sccc3n(CC(=O)NCc3ccccc3)c2=O)CC1` (stereo not drawn), the “activity change, negative = inhibition” value is inactive: -7.55%.

Take `CCOc1ccc(S(=O)(=O)N(CC(=O)Nc2ccc(OC)cc2OC)c2ccccc2)cc1`: the “activity change, negative = inhibition” value was inactive: -0.135%.

In the case of `Cc1nn(CCCC(=O)NCc2ccccc2Br)c(=O)c2c1sc1ccccc12`, the “activity change, negative = inhibition” value is inactive: -0.13%.

`O=C(CN1C=NS(=O)(=O)c2ccccc21)Nc1ccccc1F`: the “activity change, negative = inhibition” value is inactive: -7.28%.

In the case of `O=C(NCc1ccccc1F)C1CCCN(C(=O)N2CCOc3ccccc32)C1` (stereo not drawn), the “activity change, negative = inhibition” value is inactive: -26.8%.

For the compound `COc1ccc(OC)c(CNS(=O)(=O)c2ccc3c(c2)oc(=O)n3C)c1`, the “activity change, negative = inhibition” value is inactive: -18.3%.

`Cc1cccc2nc(Cn3c(=O)n(-c4ccc(Cl)cc4)c(=O)c4c5c(sc43)CCC5)cc(=O)n12`: the “activity change, negative = inhibition” value was inactive: -6.16%.

In the case of `O=C1CCc2ccccc2O1`, the activity change, negative = inhibition entry was “inactive”.

In the case of `COc1ccc(S(=O)(=O)N(CC(=O)N2CCc3ccccc3C2)c2ccc(C)cc2)cc1`, the “activity change, negative = inhibition” value is inactive: -10.5%.

For `CCn1cc(C(=O)NCCc2ccccc2)c(=O)c2cc(S(=O)(=O)N3CCCCCC3)ccc21`, the “activity change, negative = inhibition” value is inactive: -17.5%.

Consider `Cc1nn(C(C)C(=O)N2CCN(c3ccc(F)cc3)CC2)c(=O)c2c1sc1ccccc12` (stereo not drawn), for which the “activity change, negative = inhibition” value is inactive: -5.88%.

For the compound `CC1=C(C/C=C(\C)CCC[C@H](C)CCC[C@H](C)CCCC(C)C)C(=O)c2ccccc2C1=O`, the “activity change, negative = inhibition” value is inactive: 13.9%.

As to `Cc1cccc(C)c1NC(=O)C1CCCN1S(=O)(=O)c1ccccc1` (stereo not drawn), the “activity change, negative = inhibition” value is inactive: 0.102%.

Consider `O=C(OCCOCCO)c1ccccc1Nc1cccc(C(F)(F)F)c1`, for which the “activity change, negative = inhibition” value was inactive: -27.3%.

As to `CCc1ccc2ncc3c(-c4ccc(F)cc4)nn(CC(=O)NC4CCCCC4)c3c2c1`, the “activity change, negative = inhibition” value was inactive: -6.93%.

`CCOC(=O)Cn1c(=O)n(-c2cccc(Cl)c2)c2nc(-c3ccccc3Cl)nc(C(N)=O)c21`: the “activity change, negative = inhibition” value was inactive: -23.1%.

Turning to `CN(C)c1ccc(CNC(=O)Cc2ccc(NC(=O)N3CCCCc4ccccc43)cc2)cc1`, the “activity change, negative = inhibition” value is inactive: -5.84%.

Turning to `Cc1ccccc1OC(=O)c1nc(SCc2ccccc2F)ncc1Cl`, the “activity change, negative = inhibition” value is inactive: -8.95%.

`Cc1c(C)n(Cc2ccccc2)c2ccc(C(=O)NCC(C)c3ccccc3)cc12` (stereo not drawn): the “activity change, negative = inhibition” value was inactive: -4.55%.

In the case of `Cc1ccc(N2CCN(S(=O)(=O)c3nnc(NC(=O)c4ccccc4)s3)CC2)cc1`, the “activity change, negative = inhibition” value is inactive: -5.34%.

Turning to `COc1ccc(N2CCN(C(=O)c3cc4c(=O)oc5ccc(C)cc5c4s3)CC2)cc1`, the “activity change, negative = inhibition” value was inactive: -8.55%.

For `CCOC(=O)CNC(=O)c1cc2c(=O)oc3ccccc3c2s1`, the “activity change, negative = inhibition” value is inactive: 0.262%.

Consider `CCOc1ccc(N2CC(NC(=O)c3ccc4c(c3)OCO4)CC2=O)cc1` (stereo not drawn), for which the “activity change, negative = inhibition” value is inactive: 1.06%.

Regarding `CCCCNc1nc2c(S(=O)(=O)c3ccc(C)cc3)nnn2c2ccsc12`, the “activity change, negative = inhibition” value is inactive: -6.77%.
